Experimental data published in the CheMixHub viscosity set.

For `CN(CCO)CCO`, the viscosity (303.15 K, 101 kPa) was 57.5 ± 3.5 mPa·s [study A] and 59.76 ± 2.5 mPa·s [study B] and 57.23 ± 3.5 mPa·s [study C] and 57.14 ± 0.63 mPa·s [study D], the viscosity (308.15 K, 101 kPa) was 44.21 ± 2.7 mPa·s [study A] and 46.2 ± 2.4 mPa·s [study B] and 42.98 ± 2.6 mPa·s [study C] and 43.75 ± 0.55 mPa·s [study D] and the viscosity (318.15 K, 101 kPa) was 27.51 ± 1.7 mPa·s [study A] and 29.8 ± 1.6 mPa·s [study B] and 26.12 ± 1.6 mPa·s [study C] and 26.84 ± 0.32 mPa·s [study D].

In the case of `NCCN`, the viscosity (308.15 K, 101 kPa) is reported as 1.13 ± 0.094 mPa·s [study A] and 1.05 ± 0.03 mPa·s [study B] and 1.12 ± 0.02 mPa·s [study C] and 1.08 ± 0.02 mPa·s [study D] and 1.191 ± 0.01 mPa·s [study E], the viscosity (313.15 K, 101 kPa) is reported as 1.01 ± 0.088 mPa·s [study A] and 0.986 ± 0.029 mPa·s [study B] and 1.02 ± 0.02 mPa·s [study C] and 1.073 ± 0.0087 mPa·s [study D] and 1.08 ± 0.009 mPa·s [study E] and the viscosity (318.15 K, 101 kPa) is reported as 0.97 ± 0.087 mPa·s [study A] and 0.953 ± 0.029 mPa·s [study B] and 0.93 ± 0.02 mPa·s [study C] and 0.93 ± 0.02 mPa·s [study D] and 0.9819 ± 0.008 mPa·s [study E] and 0.986 ± 0.008 mPa·s [study F].

In the case of `CC(C)(C)O`, the viscosity (298.15 K, 101 kPa) is reported as 4.191 ± 0.11 mPa·s, 4.999 ± 0.13 mPa·s, 4.204 ± 0.044 mPa·s, 4.462 ± 0.061 mPa·s, 4.313 ± 0.068 mPa·s, 4.39 ± 0.025 mPa·s (2×), 4.309 ± 0.052 mPa·s, 4.445 ± 0.051 mPa·s, 4.345 ± 0.15 mPa·s, 4.456 ± 0.043 mPa·s [several studies], the viscosity (298.15 K, 101.33 kPa) is reported as 4.238 mPa·s [study A] and 4.52 ± 0.023 mPa·s [study B] and 4.352 ± 0.05 mPa·s [study C] and 4.445 ± 0.19 mPa·s [study D] and 4.372 ± 0.032 mPa·s [study E] and 4.518 ± 0.035 mPa·s [study F] and 4.372 ± 0.18 mPa·s [study G] and the viscosity (303.15 K, 101 kPa) is reported as 3.402 ± 0.042 mPa·s, 2.968 ± 0.13 mPa·s, 3.287 ± 0.025 mPa·s, 3.319 ± 0.053 mPa·s, 3.364 ± 0.02 mPa·s, 3.03 ± 0.66 mPa·s, 3.238 ± 0.04 mPa·s, 3.335 ± 0.91 mPa·s, 2.968 ± 0.27 mPa·s, 3.372 ± 0.11 mPa·s [several studies]. For the same compound, the viscosity (303.15 K, 101.33 kPa) was 3.365 ± 0.075 mPa·s [study A] and 3.318 ± 0.021 mPa·s [study B] and 3.359 ± 0.051 mPa·s [study C] and 3.359 ± 0.15 mPa·s [study D] and 3.427 ± 0.026 mPa·s [study E], the viscosity (308.15 K, 101 kPa) was 2.658 ± 0.035 mPa·s, 2.646 ± 0.068 mPa·s, 2.548 ± 0.02 mPa·s, 2.645 ± 0.036 mPa·s, 2.63 ± 0.014 mPa·s, 2.643 ± 0.016 mPa·s (2×), 2.51 ± 0.031 mPa·s, 2.645 ± 0.091 mPa·s, 2.644 ± 0.033 mPa·s, 2.634 ± 0.027 mPa·s [several studies] and the viscosity (313.15 K, 101 kPa) was 2.849 ± 0.81 mPa·s [study A] and 2.145 ± 0.2 mPa·s [study B] and 2.145 ± 0.1 mPa·s [study C] and 2.108 ± 0.026 mPa·s [study D] and 2.096 ± 0.029 mPa·s [study E] and 2.099 ± 0.034 mPa·s [study F] and 2.097 ± 0.012 mPa·s [study G]. For the same compound, the viscosity (313.15 K, 101.33 kPa) was 2.081 ± 0.048 mPa·s [study A] and 2.014 ± 0.031 mPa·s [study B] and 2.014 ± 0.12 mPa·s [study C] and 2.123 ± 0.017 mPa·s [study D] and the viscosity (318.15 K, 101 kPa) was 1.73 ± 0.38 mPa·s [study A] and 1.635 ± 0.059 mPa·s [study B] and 1.702 ± 0.017 mPa·s [study C] and 1.697 ± 0.011 mPa·s [study D].

In the case of `CCNCC`, the viscosity (298.15 K, 100 kPa) is reported as 0.304 ± 0.008 mPa·s [study A] and 0.2954 mPa·s [study B] and 0.295 ± 0.1 mPa·s [study C] and 0.2954 mPa·s [study D], the viscosity (303.15 K, 100 kPa) is reported as 0.288 ± 0.007 mPa·s [study A] and 0.2842 ± 0.15 mPa·s [study B] and 0.288 ± 0.023 mPa·s [study C] and 0.284 ± 0.1 mPa·s [study D] and 0.2842 ± 0.15 mPa·s [study E] and the viscosity (308.15 K, 100 kPa) is reported as 0.274 ± 0.007 mPa·s [study A] and 0.2698 mPa·s [study B] and 0.27 ± 0.1 mPa·s [study C] and 0.2698 mPa·s [study D].

With `Nc1ccccc1` the viscosity (298.15 K, 101 kPa) was 3.64 ± 0.11 mPa·s, 3.722 ± 0.099 mPa·s, 3.708 ± 0.038 mPa·s, 3.773 ± 0.057 mPa·s, 3.773 ± 0.036 mPa·s, 3.72 ± 0.05 mPa·s, 3.778 ± 0.084 mPa·s, 3.721 ± 0.099 mPa·s, 3.867 ± 0.034 mPa·s, 3.167 ± 0.028 mPa·s [several studies].

With `COCCOCCOCCO` the viscosity (298.15 K, 101.33 kPa) was 6.586 ± 0.073 mPa·s [study A] and 6.253 ± 0.33 mPa·s [study B] and 6.586 ± 0.14 mPa·s [study C] and 6.24 ± 0.1 mPa·s [study D].

± gives the uncertainty stated by the source. Not every entry of the source has a single result; some have several. They are shown here; other results are not. There may be further records. Values given together are repeated measurements (runs, samples, wells, individuals or studies). Marks in square brackets tell the records apart. Letters count within one entry. Signs of the kind (2×) give the number of equal values in this list.
